Test results as given in PubChem BioAssay AID651820 (National Center for Advancing Translational Sciences (NCATS), 2012).
Hit rate of the full screen: of about 340,000 compounds, about 12,000 (3.5%) were called active. Inconclusive results, whose numbers are uncertain, are shown with a selection of clear calls. Calls follow the shape of the dose curve; as a rule, active = well fitted inhibition curve with a large enough effect; inconclusive = small, poorly fitted or top-dose-only effect, or another doubt; inactive = no such curve, though single readings can be large or run the other way. Potencies of inconclusive entries are left out as doubtful fits.

Assay: qHTS Assay for Inhibitors of Hepatitis C Virus (HCV)
Conditions: Huh7.5.1 HCVcc-Cre (HCVcc is cell-culture hepatitis C virus) infection, luciferase reporter, 44 h; activity change, negative = inhibition: at 41.8 µM (top of the series) unless noted
Outline: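 Cells seeded at 1,000/well and cultured 4 h, then compounds added followed by HCVcc-Cre virus (~0.5 moi). After 44 h further culture, luciferase substrate was added, plates held 15 min at room temperature, and luminescence read for 15 sec.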
% is scaled to controls: 0 for no effect and ±100 for the full control effect; potency is read from the fitted curve at half-maximal effect; tags tell the direction and shape of the fitted curve.

| Compound | Potency | activity change, negative = inhibition |
| --- | --- | --- |
| CCc1ccc(OCC(=O)O/N=C(\N)c2ccncc2)cc1 | inconclusive [inhibitor, partial curve] |  |
| O=C(NCC(c1ccco1)N1CCc2ccccc21)c1cccc(F)c1 (centres undefined) | inconclusive [inhibitor, single point] |  |
| CCOC(=O)C(=CNc1cccnc1Oc1ccc(C)c2c1CCC2)C(=O)OCC | inconclusive [inhibitor, single point] |  |
| COCCN(C(=O)CCl)C(C(=O)NC1CCCCC1)c1ccccc1C (centres undefined) | inconclusive [inhibitor, single point] |  |
| CC(C)NC(=O)c1cnc(N2CCN(c3ccccn3)CC2)c2ccccc12 | inconclusive [inhibitor, single point] |  |
| N#CC1=C(N)Oc2cc3ccccc3cc2C1c1cccs1 (centres undefined) | inconclusive [inhibitor, single point] |  |
| N#CCc1nn(Cc2ccc(F)cc2)c(=O)c2ccccc12 | inconclusive [inhibitor, partial curve] |  |
| c1ccc(C2CNCc3c2ccc2ccccc32)cc1 (centres undefined) | inconclusive [inhibitor, single point] |  |
| COc1cccc(C(=O)Nc2ccc(-c3nc4ccccc4o3)c(O)c2)c1 | inconclusive [inhibitor, full curve] |  |
| COc1cccc(-c2nc(NC(C)C)c3ccccc3n2)c1O | inconclusive [inhibitor, partial curve, poor fit] |  |
| CCCCCCCC1CC(CSC(=N)N)OC1=O (centres undefined) | inconclusive [inhibitor, partial curve] |  |
| Cc1cc(C)nc(NC(=O)/C=C/c2cccs2)c1 | inconclusive [inhibitor, partial curve] |  |
| O=S(=O)(c1cccc(-c2csc(-c3cccnc3)n2)c1)N1CCCCC1 | inconclusive [inhibitor, single point] |  |
| N#CCC(=O)N/N=C/c1cc(-c2ccccc2)n(-c2ccc(Cl)cc2)c1-c1ccccc1 | inconclusive [inhibitor, single point] |  |
| O=C(Nc1nc2ccccc2n1CCN1CCOCC1)c1ccc(COc2ccccc2Br)o1 | active: 10 µM |  |
| CCOc1cccc(C(=O)Nc2ccc3ccccc3c2)c1 | inactive |  |
| CCc1ccc(CN2CCC(n3nccc3NC(=O)c3ccc4c(c3)OCO4)CC2)cc1 | inconclusive [inhibitor, single point] |  |
| Cc1ccc(N(C(=O)c2ccccc2Cl)C2=NC(C)CS2)c(C)c1 (centres undefined) | inconclusive [inhibitor, single point] |  |
| COc1cc(-c2nnc(SCC3(c4ccccc4)OCCO3)o2)cc(OC)c1OC | inconclusive [inhibitor, single point] |  |
| Cc1c(C(=O)Nc2ccc(F)cc2)oc2ccc(S(=O)(=O)N3CC(C)CC(C)C3)cc12 (centres undefined) | inconclusive [inhibitor, full curve, poor fit] |  |
| Cc1ccc(-c2csc(N3C(=N)SCC3=O)n2)cc1 | inactive |  |
| COc1cc(/C=C/C(=O)c2ccccc2O)cc(OC)c1OC | inactive |  |
| COc1ccc(CC(=O)Nc2cc(Cl)ccc2O)cc1 | inactive |  |

| Compound | Potency | activity change, negative = inhibition |
| --- | --- | --- |
| CC(=O)C1=NOC(CNC(=O)c2c(-c3ccccc3Cl)noc2C)C1 (centres undefined) | inconclusive [inhibitor, single point] |  |
| COc1ccc(C2CCCN2C(=O)Nc2cccc(C(C)=O)c2)cc1OC (centres undefined) | inconclusive [inhibitor, partial curve] |  |
| Cc1cccc(CSCCNC(=O)c2ccc(CN3CCOCC3)cc2)c1 | inconclusive [inhibitor, partial curve] |  |
| COP(=O)(OC)c1nc(-c2cccc3ccccc23)oc1N1CCCCC1 | inconclusive [inhibitor, single point] |  |
| CCc1cccc(OCC(=O)Nc2ccc(C)c(S(=O)(=O)N3CCCCCC3)c2)c1 | active: 8.91 µM |  |
| C/C(=N\NC(=O)c1nnn(-c2nonc2N)c1CN(C)c1ccccc1)c1ccccn1 | active: 4.47 µM |  |
| C=CCN(c1ccccc1)S(=O)(=O)c1cc2c(cc1C)N(C)CCO2 | inconclusive [inhibitor, partial curve] |  |
| CCOC(=O)Cc1csc(NC(=O)c2c(O)c3c(n(CC(C)C)c2=O)CCCC3)n1 | inconclusive [inhibitor, full curve] |  |
| Cc1ccc(S(=O)(=O)N2CCCCC2)cc1NC(=O)COC(=O)c1ccc(O)cc1 | inconclusive [inhibitor, single point] |  |
| Cc1ccc(NS(=O)(=O)c2ccc(C(=O)N3CCC3)cc2)cc1 |  | inconclusive: -30.3% [inhibitor] |
| CC(C)(C)c1ccc(N2C(=O)CSC2c2cccnc2)cc1 (centres undefined) | inactive |  |
| CC(C)CN(CC(C)C)CC(O)COc1ccc([N+](=O)[O-])cc1 (centres undefined) | inactive |  |
| CCCN(CCC)S(=O)(=O)c1ccc(C(=O)OCCN2C(=O)c3cccc4c(N5CCOCC5)ccc(c34)C2=O)cc1 | inconclusive [inhibitor, partial curve] |  |
| COc1ccc2nc(/C=N/NC(=O)CCNC(=O)OC(C)(C)C)ccc2c1 | inactive |  |
| COc1ccc(C(=O)Nc2ccccc2C(=O)N/N=C/c2ccccn2)cc1OC |  | inconclusive: -75.5% [inhibitor] |
| NC(=O)c1ccc(N=Cc2c(O)ccc3ccccc23)cc1 | inactive |  |
| O=C(NC1CC1)C1CCN(S(=O)(=O)c2ccc(Cl)cc2)CC1 | inactive |  |
| O=C(Nc1cccc(Cl)c1)NC1CCN(C2CCCCC2)C1 (centres undefined) | inconclusive [inhibitor, single point] |  |
| CC(=O)Nc1ccc(NC(=O)c2oc3cc(C)c(C)cc3c2C)cc1 | inconclusive [inhibitor, partial curve] |  |
| CC(=O)Nc1ccc(SCC(=O)c2c(N)n(Cc3ccccc3)c(=O)n(C)c2=O)cc1 | inconclusive [inhibitor, partial curve] |  |
| CC(=NNC(=O)c1ccncc1)c1cc(Cl)ccc1Cl | inactive |  |
| CCOC(=O)C1CCN(C(=O)c2ccc(CNS(=O)(=O)c3ccc(OC)cc3)cc2)CC1 | inconclusive [inhibitor, single point] |  |
| COc1cc(-c2cccs2)cc(=O)c2c(C)oc(C)c12 | active: 11.2 µM |  |

| Compound | Potency | activity change, negative = inhibition |
| --- | --- | --- |
| Cc1ccc2[nH]c(CCN(C)C)c(CC#N)c2c1 | inconclusive [inhibitor, single point] |  |
| CCC(=O)Nc1ccc2c(c1)nc1n2CCN(C2CCCCC2)C1 | inconclusive [inhibitor, full curve, poor fit] |  |
| CCOC(=O)c1c(C)[nH]c(C)c1C(=O)CSc1nnc(-c2ccc(OC(F)F)cc2)o1 | inconclusive [inhibitor, single point] |  |
| CC12CCC(=O)N1C(C(=O)Nc1ccc(Cl)c(Cl)c1)CS2 (centres undefined) |  | inconclusive: -33.6% [inhibitor] |
| Cn1c(N)c(C(=O)COC(=O)c2cc(C(F)(F)F)nc3ccccc23)c(=O)n(C)c1=O |  | inactive: -5.96% [at 8.37 µM] |
| Cc1ccc(NC(=O)COc2cccc(Oc3ccccc3)c2)cc1S(=O)(=O)N1CCOCC1 | active: 3.16 µM |  |
| COc1ccc(-c2csc(NC(=O)[C@H](C)N3C(=O)C4CC=CCC4C3=O)n2)cc1OC (some centres undefined) | inconclusive [inhibitor, single point] |  |
| CCOC(=O)c1c(NC(=O)CSc2ncccn2)sc2c1CCN(Cc1ccccc1)C2 | inconclusive [inhibitor, partial curve] |  |
| CCOc1ccc(-c2cc(C(=O)NN=C3CCN(C)CC3)[nH]n2)cc1 | inactive |  |
| CCN(c1ccccc1)S(=O)(=O)c1cccc(C(=O)NCC(c2cccs2)N2CCOCC2)c1 (centres undefined) | inconclusive [inhibitor, single point] |  |
| Cc1cc(C(=O)COC(=O)c2cc(Cl)c(O)c(Cl)c2)c(C)n1C | inactive |  |
| Cc1ccc(N(C)C(=O)C2CCN(S(=O)(=O)c3ccc4c(c3)oc(=O)n4C)CC2)cc1 | inactive |  |
| CCCCC(=O)Nc1ccc(C(=O)NCc2ccncc2)cc1 | inactive |  |
| CCOC(=O)c1[nH]nc2c1C(=O)N(Cc1ccccc1)C2=O | inactive |  |
| COc1cccc(NC(=O)Nc2nnc(Cc3ccc(OC)c(OC)c3)s2)c1 | inconclusive [inhibitor, partial curve, poor fit] |  |
| Cc1cc(C)cc(NC(=S)NCc2cccs2)c1 | inconclusive [inhibitor, full curve, poor fit] |  |
| CCN(C[C@H]1N[C@@](Cc2ccccc2)(C(=O)OC)[C@H]2C(=O)N(Cc3ccccc3)C(=O)[C@@H]12)C(=O)Nc1ccc(C(F)(F)F)cc1 | active: 12.6 µM |  |
| CCCCC(=O)NC(c1ccc(N(CC)CC)cc1)c1ccc2cccnc2c1O (centres undefined) | active: 1.41 µM |  |
| C=Cn1ccnc1P(=S)(c1ccc2c(c1)c1ccccc1n2CC)c1nccn1C=C | inconclusive [inhibitor, partial curve] |  |
| COc1ccc(C2c3[nH]c4ccccc4c3CCN2C(=O)Cc2nonc2C)c(F)c1 (centres undefined) | inconclusive [inhibitor, single point] |  |
| O=S(=O)(NC1CC1)c1ccc(S(=O)(=O)N2CCCc3ccccc32)cc1 | inconclusive [inhibitor, single point] |  |
| CCN(CC(=O)Nc1ccccc1-c1ccccc1)Cc1nc2ccccc2c(=O)[nH]1 | inconclusive [inhibitor, single point] |  |
| O=C1CCCN1CC(O)CS(=O)(=O)Cc1ccccc1Cl (centres undefined) | inactive |  |
